{"source": "PubChem BioAssay AID624417", "about": "(National Center for Advancing Translational Sciences (NCATS), 2012)", "note": "About 6,400 (1.6%) of roughly 410,000 compounds were called active. The inconclusive results got no clear call from the source; some entries with a clear call stand among them for comparison. Calls follow the shape of the dose curve; as a rule, active = well fitted inhibition curve with a large enough effect; inconclusive = small, poorly fitted or top-dose-only effect; inactive = no such curve, though single readings can be large or run the other way. Potencies of inconclusive entries are left out as doubtful fits. % is scaled to controls: 0 for no effect and ±100 for the full control effect; potency is read from the fitted curve at half-maximal effect; tags tell the direction and shape of the fitted curve.", "data": [{"biological_target": "Glucagon-like peptide 1 receptor (Homo sapiens) (UniProt P43220)", "sequence (P43220 whole entry, looked up)": "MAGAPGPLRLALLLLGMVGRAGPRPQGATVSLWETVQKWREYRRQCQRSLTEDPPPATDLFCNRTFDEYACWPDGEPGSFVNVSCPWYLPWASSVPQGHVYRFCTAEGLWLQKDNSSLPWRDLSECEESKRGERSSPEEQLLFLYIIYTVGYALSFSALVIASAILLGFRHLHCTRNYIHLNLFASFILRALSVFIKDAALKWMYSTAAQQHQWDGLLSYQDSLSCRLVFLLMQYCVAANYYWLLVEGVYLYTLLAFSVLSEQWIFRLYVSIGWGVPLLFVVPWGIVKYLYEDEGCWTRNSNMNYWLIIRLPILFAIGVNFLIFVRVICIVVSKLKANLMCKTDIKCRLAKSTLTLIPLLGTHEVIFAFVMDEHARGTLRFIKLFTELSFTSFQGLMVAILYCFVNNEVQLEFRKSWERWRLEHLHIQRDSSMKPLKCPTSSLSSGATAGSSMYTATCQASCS", "experiment": "qHTS of GLP-1 Receptor Inverse Agonists (Inhibition Mode); also: nearly all actives have a fitted effect of over 55% in size", "settings": "HEK293 GLP-1R CRE-luciferase, luminescence, 24 h, GLP-1R form is constitutively active; activity change, negative = inhibition: at 38.3 µM (top of the series) unless noted", "procedure,_shortened": "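Seeding at 200 cells/uL, 12 h culture, 24 hr compound treatment, then luciferase reagent and a luminescence read; cells are HEK293 stably expressing a constitutively active GLP-1R plus cAMP-responsive luciferase.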", "values": [{"smiles": "O=C(c1cccs1)N1CCN=C1SCc1ccc(F)cc1", "Potency": "inactive"}, {"smiles": "Cc1ccsc1/C=C1/C(=O)NN(c2ccccc2)C1=O", "Potency": "inconclusive [inhibitor, partial curve, poor fit]"}, {"smiles": "COc1ccc(NC(=O)CCC(=O)c2ccc(C(C)C)cc2)cc1", "Potency": "inconclusive [inhibitor, single point]"}, {"smiles": "CC(=O)NCCc1nc2ccccc2n1CCOc1ccccc1C", "Potency": "inconclusive [inhibitor, single point]"}, {"smiles": "Cc1ccc(C)c2sc(NC(=O)c3ccc(N4C(=O)CCC4=O)cc3)nc12", "Potency": "inactive"}, {"smiles": "Cc1ccc(-c2noc(CSc3nnnn3C3CCCCC3)n2)cc1", "Potency": "inconclusive [inhibitor, partial curve, poor fit]"}, {"smiles": "CC(C)(C)C(=O)NC(Nc1cccc2cccnc12)C(Cl)(Cl)Cl", "note": "(stereo not drawn)", "Potency": "active: 5.01 µM"}, {"smiles": "O=C(NC(=S)Nc1ccc(O)cc1)c1ccccc1Cl", "Potency": "inactive"}, {"smiles": "CCCNC(=S)N1CCN(C(c2ccccc2)c2ccccc2)CC1", "Potency": "inconclusive [inhibitor, partial curve, poor fit]"}, {"smiles": "Fc1ccc(Cc2cn3cc(-c4ccc(F)cc4)nc3s2)cc1", "Potency": "inconclusive [inhibitor, partial curve, poor fit]"}, {"smiles": "O=C(Cc1ccc(Br)cc1)NC1CCN(Cc2ccccc2)CC1", "Potency": "inconclusive [inhibitor, partial curve]"}, {"smiles": "O=C(CCCSc1nc2ccccc2[nH]1)Nc1ccccc1", "Potency": "inconclusive [inhibitor, single point]"}, {"smiles": "CCc1ccc(NC(=O)C2CCN(C(=O)[C@@H]3Cc4ccccc4CN3)CC2)cc1", "Potency": "inconclusive [inhibitor, single point]"}, {"smiles": "COc1ccccc1N1CCN(/N=C/c2ccc([N+](=O)[O-])cc2)CC1", "Potency": "inactive"}, {"smiles": "COc1ccc(C2=C(C(C)=O)Sc3nnc(-c4ccccc4)n3N2C(C)=O)cc1", "Potency": "inactive"}, {"smiles": "COc1ccc(Br)c(Cn2c(C)c(C(=O)NCc3cccc([N+](=O)[O-])c3)sc2=O)c1", "Potency": "inconclusive [inhibitor, single point]"}, {"smiles": "CSc1cccc(NC(=S)Nc2ccc(F)cc2)c1", "Potency": "inconclusive [inhibitor, single point]"}, {"smiles": "C#CCN(Cc1ccccc1)S(=O)(=O)C=C", "Potency": "inconclusive [inhibitor, partial curve, poor fit]"}, {"smiles": "COc1ccc(NC(=O)C[C@H]2C(=O)N(CCc3ccccc3)C[C@@H]2c2ccc(OC)cc2)cc1", "Potency": "inconclusive [inhibitor, partial curve, poor fit]"}, {"smiles": "CC(C)CN(CC(C)C)c1nc(N)c(C#N)c(CC#N)c1C#N", "Potency": "inconclusive [inhibitor, partial curve, poor fit]"}, {"smiles": "Cc1nc2nc(C)c(CCC(=O)NCc3cccc(Cl)c3)c(C)n2n1", "Potency": "inactive"}, {"smiles": "CC(=O)NC(c1ccccc1)c1nc(-c2cccc(C#N)c2)cs1", "note": "(stereo not drawn)", "Potency": "inactive"}, {"smiles": "CC(C)(Oc1ccc(Br)cc1Cl)C(=O)Nc1ccon1", "Potency": "inconclusive [inhibitor, single point]"}, {"smiles": "CC(C)N1CC=C2C(C#N)=C(N)C(C#N)(C#N)C(c3ccccc3)C2C1", "note": "(stereo not drawn)", "Potency": "inactive"}, {"smiles": "Cc1ccc(NC(=O)CCCN2C(=O)COc3ccc(C)cc32)c(C)c1", "Potency": "inconclusive [inhibitor, partial curve]"}, {"smiles": "COc1ccc2c(Sc3ccccc3)c(C(=O)N3CCC(C)CC3)[nH]c2c1", "Potency": "inconclusive [inhibitor, single point]"}, {"smiles": "CC(C)C(O)C1CCN(Cc2nc(Cc3ccccc3Cl)no2)CC1", "note": "(stereo not drawn)", "Potency": "inconclusive [inhibitor, partial curve, poor fit]"}, {"smiles": "O=C(Nc1ccc(F)c(Cl)c1)N1CCCC1", "Potency": "inactive"}, {"smiles": "Cc1ccc(NC(=O)C(=O)NCCN2CCN(Cc3ccc([N+](=O)[O-])cc3)CC2)cc1", "Potency": "inactive"}, {"smiles": "CCOc1ccc(-n2c(C)nc3c(cnn3-c3ccc(Cl)cc3)c2=O)cc1", "Potency": "inconclusive [inhibitor, full curve, poor fit]"}, {"smiles": "Cn1c(Cc2cccs2)nnc1SCC(=O)N1CCCc2ccccc21", "Potency": "inactive"}, {"smiles": "N#C/C(=C\\c1ccc(Cl)cc1)c1nc2ncccc2[nH]1", "Potency": "inactive"}, {"smiles": "O=S(=O)(Nc1ccc(OC(F)(F)F)cc1)c1cccc2nonc12", "Potency": "inconclusive [inhibitor, single point]"}, {"smiles": "Cc1ccc(N2C(=O)CSC23C(=O)N(CC(=O)Nc2ccc(C)cc2C)c2ccccc23)cc1", "note": "(stereo not drawn)", "Potency": "inconclusive [inhibitor, single point]"}, {"smiles": "COc1ccc(Br)cc1CN(C)C(=O)c1ccccc1SCC(=O)N1CCCC1", "Potency": "inconclusive [inhibitor, single point]"}, {"smiles": "COc1ccc(Nc2nc(CC(C)=O)ns2)cc1OC", "Potency": "inactive"}, {"smiles": "Cc1ccc(C(=O)O)cc1NC(=S)NC(=O)C(c1ccccc1)c1ccccc1", "Potency": "inconclusive [inhibitor, single point]"}, {"smiles": "CCc1c(C)sc(NC(=O)CN2CCN(C(=O)c3ccco3)CC2)c1C(=O)OC", "Potency": "inconclusive [inhibitor, single point]"}, {"smiles": "COc1cc(-c2cc(C(=O)Nc3ccccc3N3CCOCC3)c3ccccc3n2)cc(OC)c1OC", "activity change, negative = inhibition": "inactive: 31.8% [at 7.66 µM]"}, {"smiles": "CC(=O)Nc1ccc(OCc2ccc3c(c2)OCO3)cc1", "Potency": "inactive"}, {"smiles": "Fc1cccc(CSc2ncnc3c2ncn3C2CCCCO2)c1", "note": "(stereo not drawn)", "Potency": "inconclusive [inhibitor, partial curve, poor fit]"}, {"smiles": "CC1CC(C)CN(C(=O)CN2C(=O)NC(c3ccccc3)(c3ccccc3)C2=O)C1", "note": "(stereo not drawn)", "Potency": "inconclusive [inhibitor, partial curve, poor fit]"}, {"smiles": "O=C1c2cccc3cccc(c23)N1Cc1cccc(F)c1", "Potency": "inconclusive [inhibitor, single point]"}, {"smiles": "O=C(NCCc1c[nH]c2ccccc12)c1ccc([N+](=O)[O-])cc1", "Potency": "inconclusive [inhibitor, partial curve]"}, {"smiles": "C/C(=N\\Nc1nc2ccccc2[nH]1)c1cccs1", "Potency": "inconclusive [inhibitor, single point]"}, {"smiles": "CC(C)(C)OC(=O)N1CCC(c2cc(-c3cccs3)n[nH]2)CC1", "Potency": "active: 10 µM"}, {"smiles": "Cc1cc(C)cc(NC(=S)N=Nc2c(O)n(C)c3ccc(S(=O)(=O)N4CCOCC4)cc23)c1", "Potency": "inconclusive [inhibitor, full curve, poor fit]"}, {"smiles": "CCCOC(=O)c1ccc(NC(=O)c2ccc(Br)o2)cc1", "Potency": "inconclusive [inhibitor, single point]"}, {"smiles": "O=C(CCNC(=O)c1ccc(Cl)cc1)Nc1ccccc1N1CCCCC1", "Potency": "inconclusive [inhibitor, single point]"}, {"smiles": "Cc1cc(C(=O)Nc2cc(C(C)(C)C)on2)c(C)o1", "Potency": "inactive"}, {"smiles": "COc1ccccc1Nc1nc(NCC(C)C)nc(N)c1[N+](=O)[O-]", "Potency": "inconclusive [inhibitor, full curve]"}, {"smiles": "COc1ccc(C(=O)CCc2ccccc2)c(O)c1", "Potency": "inconclusive [inhibitor, single point]"}, {"smiles": "CCOc1cccc(C(=O)Nc2cccc(-c3nc4ncccc4o3)c2C)c1", "Potency": "inconclusive [inhibitor, single point]"}, {"smiles": "O=C1CCCc2ccccc2N1Cc1ccc(Cl)cc1", "Potency": "inconclusive [inhibitor, partial curve, poor fit]"}, {"smiles": "Cc1[nH]c2c(C)cccc2c1CCNC(=O)C1CCCCC1C(=O)OCC(F)(F)F", "note": "(stereo not drawn)", "Potency": "inconclusive [inhibitor, single point]"}, {"smiles": "CC(=O)N1CCc2cc(S(=O)(=O)N3c4ccccc4CC3C)ccc21", "note": "(stereo not drawn)", "Potency": "inactive"}, {"smiles": "CCOc1cc(/C=C/c2cc(C(F)(F)F)[nH]c(=O)n2)ccc1O", "Potency": "inconclusive [inhibitor, single point]"}, {"smiles": "Cc1cc(C)c2c(=O)n3c(nc2c1)C(Cc1ccccc1)NC(=O)c1cccnc1-3", "note": "(stereo not drawn)", "Potency": "inactive"}, {"smiles": "O=C(Nc1ccccc1)c1ccccc1NS(=O)(=O)c1ccc(Cl)s1", "Potency": "inconclusive [inhibitor, partial curve]"}, {"smiles": "Oc1c(Cl)cc(Cl)cc1/C=N/Nc1ncc(Br)cn1", "Potency": "inconclusive [inhibitor, partial curve, poor fit]"}, {"smiles": "CC1(Cc2cccc(C(F)(F)F)c2)C(=O)Nc2c(Cl)cccc21", "note": "(stereo not drawn)", "Potency": "inconclusive [inhibitor, single point]"}, {"smiles": "CCN(CC(=O)Nc1ccccc1OC)C(=O)COc1ccc2ccccc2c1", "Potency": "inconclusive [inhibitor, partial curve]"}, {"smiles": "Cc1cccc2cc(C#N)c(SCCN3CCCCC3)nc12", "Potency": "inconclusive [inhibitor, full curve, poor fit]"}, {"smiles": "C/C(=N\\Nc1cc(C(F)(F)F)ccc1Cl)c1ccncc1", "Potency": "inconclusive [inhibitor, single point]"}, {"smiles": "O=C(C[C@H]1C/C=C\\CC[C@@H](Cc2ccc(F)cc2)C(=O)OC[C@H]2CCCN2C1=O)N[C@@H](CO)Cc1ccccc1", "Potency": "inconclusive [inhibitor, single point]"}, {"smiles": "C=C(C)C1CC=C(C)/C(=N/NC(=S)Nc2ccccc2)C1", "note": "(stereo not drawn)", "Potency": "inconclusive [inhibitor, partial curve, poor fit]"}, {"smiles": "CC12CC3CC(C)(C1)CC(C(O)CN1CCOCC1)(C3)C2", "note": "(stereo not drawn)", "Potency": "inconclusive [inhibitor, single point]"}, {"smiles": "COc1ccc(CNC(=O)[C@@H](NC(=O)C2CCN(C(=O)[C@@H](N)Cc3ccccc3)CC2)C(C)C)cc1", "Potency": "inactive"}]}]}
